From patent publication US11178870B2 (priority 2017, dated 2021)

Experiments:
Magnaporthe grisea = type: in vivo; settings: class of control value, Table 7
Phytophthora infestans = type: in vivo; settings: class of control value, Table 7
[1] = system: Colletotrichum orbiculare; settings: 250 ppm spray, 2.5 ml/pot; investigated 6 to 10 days after inoculation

| Structure (SMILES) | Test A control value (blast on rice) (Magnaporthe grisea) | Test F control value (late blight on tomato) (Phytophthora infestans) | Test H control value (anthracnose on cucumber) [1] |
| --- | --- | --- | --- |
| CCn1c(-c2ccc(C#N)cc2F)c(-n2cc(F)cn2)cc(Cl)c1=O [Compound 508] | L (L shows the control value of 50% or less) | L (L shows the control value of 50% or less) | H (H shows the control value more than 50%) |
| O=c1c(Cl)cc(-c2cc(Br)sc2Cl)c(-c2c(F)cccc2F)n1CC(F)F [Compound 403] | H (H shows the control value more than 50%) | L (L shows the control value of 50% or less) | L (L shows the control value of 50% or less) |
| O=c1c(Cl)cc(-c2ccsc2Cl)c(-c2c(F)cccc2F)n1CC(F)F [Compound 404] | H (H shows the control value more than 50%) | L (L shows the control value of 50% or less) | L (L shows the control value of 50% or less) |
| Cn1c(-c2ccc(F)cc2F)c(-n2cc(F)cn2)cc(Br)c1=O [Compound 465] | H (H shows the control value more than 50%) | L (L shows the control value of 50% or less) | H (H shows the control value more than 50%) |
| CCn1c(-c2ccc(F)cc2Cl)c(-c2ccsc2Cl)cc(Br)c1=O [Compound 459] | H (H shows the control value more than 50%) | L (L shows the control value of 50% or less) | H (H shows the control value more than 50%) |
| Cc1cnn(-c2cc(Cl)c(=O)n(C)c2-c2ccccc2F)c1Cl [Compound 488] | H (H shows the control value more than 50%) | L (L shows the control value of 50% or less) | H (H shows the control value more than 50%) |
| Cn1c(-c2ccc(F)cc2Cl)c(-n2cc(Cl)cn2)cc(Cl)c1=O [Compound 452] | H (H shows the control value more than 50%) | L (L shows the control value of 50% or less) | H (H shows the control value more than 50%) |
